The full ranking holds about 33,000 sequences; the median of “E-score (-0.5 to 0.5)” is about -0.013, and the highest 2% start at about 0.3. Some of the results follow.
target: T1, Msn1 (UniProt P22148); test: PBM E-score (8-mer binding enrichment) (E-score (-0.5 to 0.5)); higher = stronger / more preferred TF binding; most listed sequences are background and not binding sites; conditions: protein concentration: 200 nM; construct: GST-full length
T1 sequence: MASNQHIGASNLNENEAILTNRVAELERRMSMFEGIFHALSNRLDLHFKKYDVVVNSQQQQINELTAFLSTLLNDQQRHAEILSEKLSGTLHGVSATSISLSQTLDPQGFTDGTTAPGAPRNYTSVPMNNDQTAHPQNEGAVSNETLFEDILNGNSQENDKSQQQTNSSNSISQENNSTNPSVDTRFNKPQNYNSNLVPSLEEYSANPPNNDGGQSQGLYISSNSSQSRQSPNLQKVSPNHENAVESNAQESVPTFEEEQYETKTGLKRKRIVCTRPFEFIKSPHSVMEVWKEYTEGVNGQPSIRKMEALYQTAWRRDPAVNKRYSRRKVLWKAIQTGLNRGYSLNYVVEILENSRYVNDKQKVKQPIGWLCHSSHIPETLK
Outline: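 Universal all-10-mer Agilent arrays, double-stranded by primer extension on fresh or once-stripped slides, were probed with about 100-200 nM GST-tagged yeast transcription factors made by PURExpress. Fluorescent anti-GST detected bound protein, and masliner normalised the scans. E-scores from the Universal PBM Analysis Suite were given to each ungapped eight-base word pooled with its reverse complement.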

Sequence	PBM E-score
TTACAAAA	0.12
CCTCGTCC	-0.0458
ATATGTTC	0.11
GGTATGAC	0.0848
CCTCTGAA	-0.13
CCGTGCTC	-0.148
ATTGTGAG	-0.059
AATAGACG	-0.0584
CCTCGCAG	-0.159
ACGCCAAT	-0.0553
CATGCGAA	-0.0259
CTGTAAAG	0.0053
CCCTCATC	-0.42
CAGTCCGA	0.138
CCTGCCCA	-0.222
CCGTGGAG	-0.258
CAGGCCGG	-0.139
GCCGTACC	-0.159
ACGAAATA	0.0981
TAGATACA	0.0677
AAGGCGTC	-0.0754
GTCGAGGA	-0.046
ACCATGCC	-0.0435
AACCACAG	-0.106
CGCCTGTC	-0.0636

Sequence	PBM E-score
CAGTCAGG	-0.211
CAAGAGAG	-0.0301
GAAATATA	0.255
ATCGTCAG	-0.173
ATCACTGA	0.0304
CTACTGCA	-0.0174
GCAAGAAA	0.0128
ATCGTATC	0.00198
AACTGCCG	-0.0718
CGCAAGAA	0.156
CCGAGACG	0.207
AATACCGG	0.0869
GATGGCAA	-0.0517
GGACGGAC	0.0267
AGTCCTTG	0.278
CGCCGCTA	-0.078
AGTGCCCA	-0.0834
TAAAGCTA	-0.0093
GCAGGGCC	-0.325
AACGGTCA	-0.0795
GCACAGTA	-0.0259
CGACTTTC	0.132
CATGGGAC	0.218
CTCACTAA	-0.145
CTAATATC	0.0983

Sequence	PBM E-score
GCCAGATA	-0.123
CCGTCAGC	-0.145
ACCATCAA	-0.0532
CCTATAGC	-0.0623
ACGTCATA	0.235
CGCTCAGA	-0.138
CCTTCGGA	0.21
AACTGCCA	-0.067
AGCGCATA	0.034
CTTAGGTC	0.0153
ATCCCACG	-0.0996
AGCATACG	-0.203
GGTCAGTA	0.0314
GGATGCCA	-0.144
GGGAATAC	-0.0028
CCACTTGA	-0.0858
ACAGTCTA	0.0479
TAGCACTA	-0.00886
GCTATTAC	0.0567
CGAGGGGA	-0.0585
CGTTAATC	0.0604
ATCCCCCG	-0.325
CTAAACAA	-0.0713
ACCAACCT	-0.0991
CGGGGCTC	-0.214

Sequence	PBM E-score
AGGTAAAT	0.0451
GGTGATAA	-0.12
AAATCCGG	0.168
GGGAAACC	-0.0351
GAACCGAA	0.105
AAGTTGAC	-0.0576
GGAGCAAC	-0.0393
ACAGCGCT	-0.0175
CATCACCC	-0.282
GTGAAAAC	0.0103
AGCGAAGC	-0.217
CAAAAGCA	0.0629
CAGGAAAC	0.142
AACTTACG	0.077
TTAATCAA	0.175
CCGAGACC	-0.0572
GTACTATA	0.233
CTTCATCC	-0.176
AGAATCAT	0.0794
CGGCCTTA	0.0691
ACAAGTGC	-0.173
CTCGAGCA	0.0767
AGCGATGC	-0.276
ATTGGTAA	0.00511
GCGTGGCC	-0.227

Sequence	PBM E-score
AACACCCT	-0.182
ACAGATGA	-0.0451
AAACCAGA	-0.12
ACGGGGAA	-0.147
CCAGTGTC	0.0998
GGACTGAA	0.0835
ACGGAATG	-0.0132
AGCGGTTC	-0.113
ACACCTAA	-0.0102
CAGAAACA	0.0552
GCAAACTA	0.154
AATCCGAT	0.249
CAAAACGG	0.114
AAACCGAC	0.0136
GCTCTTCC	-0.186
CCTAACCG	-0.124
ATCTCTGA	-0.00064
ATTCATCG	0.0126
ACACTGAG	-0.00755
CGTGCCGC	-0.0316
ACTTGAAG	0.127
CTAAATGA	0.137
CCGCGGGC	0.0321
AAGCCCTC	-0.201
TCATAAAA	0.172

Sequence	PBM E-score
AAAGTGGT	-0.0362
ACACATAC	0.139
ATCAAGCC	0.0134
CAATTGCA	0.0191
GATGAGCA	0.0845
ACGGACGT	0.0913
CACAAAGC	0.161
AATAGAAA	0.00219
GTCCGCAC	0.157
ATGTGCGC	-0.0939
AGGCGTAG	-0.189
CCCGACCA	-0.052
CGCTCGGC	-0.0854
CAGTGGAG	-0.0685
CGGCTTCA	-0.0614
ACAAGCAG	0.0727
CACTTGCG	0.0135
CAGTGAGG	-0.251
GGTTCGAA	0.116
CCTCTCAA	-0.144
CCCCGCAA	-0.0223
CCACCTTC	-0.34
CGGATTTC	0.109
GAACCCTA	0.0189
AGAGTTTC	-0.0462

Sequence	PBM E-score
CAGGAGTA	-0.152
AAATCTCG	0.121
TCAGGGGA	-0.0694
AGTCCCAT	0.0477
TCTGTCCA	0.363
TACATGCA	0.0757
AACGAATC	0.106
CCGTGTTC	0.169
TACTCAAA	0.0232
CCAGCCTA	-0.386
ACCGATCA	0.0723
ACTTTGCA	0.119
ATTGGTAC	0.173
ACCCAACT	-0.114
AATTGTTA	0.0923
CAATAAAC	0.0413
AACCCCGC	-0.186
CAAAAACA	0.175
AATGCTCG	0.0488
CCCTTCCA	-0.255
ACGATATC	-0.0752
GATTGAAC	0.0403
ACATATCC	0.233
ACTGTTCC	-0.0375
GAGCCTCC	-0.224

Sequence	PBM E-score
TAGATGCA	-0.0693
AGCTTTGC	-0.152
AAATTGTC	0.449
AAGTCCCG	0.283
ACGAGAAA	0.129
AAGTTAAT	-0.0283
ACGTTACA	0.146
TCTCGAAA	0.201
CGGGCTAG	-0.185
GGTGGAAC	-0.235
AACAGCGG	-0.0502
TGCGGAAA	0.0764
AGTCGCGG	-0.0858
CACTAGAG	-0.0404
CACCGAGA	-0.047
CCAACTGC	-0.167
AAGCGGGA	-0.106
ACAGCGGA	0.0546
AACCGCAC	-0.0736
GGGTCAGA	-0.256
CTCTACAA	-0.0301
AGATACAA	0.277
CATCATTA	0.189
CACAATGG	0.0832
GAGCATGC	-0.114

Sequence	PBM E-score
AGCATATA	0.0198
AGCGGCGG	-0.0477
TTATATAA	0.271
CCTTGATC	-0.124
CGCCCCAG	-0.178
ACATGAAG	0.131
CATAAACG	0.213
ACACATCG	0.043
ATAACGGC	-0.028
CTGTCGCA	-0.0442
ATTGCTTA	-0.0277
ACCAGAAT	0.0369
ATTTGCAC	0.125
CAGCTTAG	-0.0423
GGCGTCAA	-0.0643
ATTTTGTG	0.144
ACCCGCAT	0.00591
GCCCGCCA	-0.199
CCACAGCG	-0.034
ATACTCAC	0.00337
CGTACATC	0.00439
ATGAGGGG	-0.0997
GAGTAAGC	-0.106
GCACATGC	0.0129
GATTAGAC	0.0588

Sequence	PBM E-score
CCGGATTA	0.0748
AGCGGACC	-0.132
GGTGCTAC	-0.204
AAGCCAGC	-0.094
CCGGCCTA	0.0234
CTTCTATC	-0.0795
ATACTGTG	0.0964
ATTACTCG	0.209
ATCATTAC	0.118
ATAGTCGC	-0.0149
CAACCCTA	-0.0797
ATGTGAGA	0.0507
CGTGGCTC	-0.284
ACCACTCA	-0.194
CCGCATTC	-0.0341
CCTCGCCC	-0.162
CGCGGCCA	-0.123
AGAACTTG	0.0582
AATGGCTG	-0.0631
GTAGCTTA	-0.0116
CATCCTCC	-0.163
ACAAGAAC	0.268
TATCTACA	0.195
CCGCCATC	-0.267
GAGGTAAC	0.0391

Sequence	PBM E-score
ACGGGGCT	-0.405
CTAATCAG	-0.0717
GTTGATTA	0.135
CAGCACAA	0.0371
GTGAGCAC	-0.107
CAGGTGCA	-0.0506
CAAATCGG	0.0712
CAACATAA	0.289
CACGATCG	0.0495
AATGGGAC	0.0849
ATTATGAC	0.129
CGGGACCC	-0.265
CTTGAGGA	-0.132
AGCGCCCC	-0.434
CTTTGTTA	0.215
CACGCTCG	-0.167
AGTGCAAA	0.186
ACCCGTCA	-0.235
AAATACAC	0.0164
CAACTGCA	0.0518
CGGTGAAC	0.0446
ACGTCACA	0.109
CACGTCTG	0.213
CAGCTAGG	-0.135
CGATATAG	0.0828

Sequence	PBM E-score
GCGGAACA	-0.0512
GGGCGACC	-0.306
AGGGTTAG	-0.279
CGGACTCC	-0.0227
GTCGTCCA	0.11
ACATATGA	0.311
AAGACCGG	0.0652
CGATAAAA	0.243
ACCCTTAC	-0.0541
CCTCAGGC	-0.325
AACCTTGC	-0.0732
CTTTCAAC	0.0513
CATGCTCC	-0.204
AGTGCGGG	0.0108
AGTACTAG	0.266
CGACCAAG	-0.114
TGGAAAAA	0.0968
AGAACAGA	0.0277
CTTTTGAC	0.0513
GAGAATCA	-0.0362
TATCCGCA	0.157
GATGTCAA	0.0785
ATTCCAGA	0.0673
CATGGGGA	-0.00533
GAAGTGGC	-0.127

Sequence	PBM E-score
CCTACGGA	-0.257
GCCGTTTA	0.0426
CGTTTGTA	0.189
AGGCGCTG	0.00798
ATGTTCAC	0.129
CCGACATC	0.0379
CTCTTCAG	0.136
CGTTATTA	0.0658
ACAAGGAC	0.358
CTCGTCTC	-0.0387
AGACCTCC	-0.313
CAAGCATC	0.0204
ATCTGGTA	0.0476
GTAAGTTA	-0.0452
ACGTACGC	-0.158
ATGCATGG	-0.049
TATATATA	0.209
AGGGAATA	-0.0115
GTTCTTGA	-0.0866
GCGTCGAC	0.102
CATCCATC	-0.247
AATCCTGA	0.15
CATGTTCA	-0.0172
CCCTTACA	0.11
CCGAGTGC	0.00444

Sequence	PBM E-score
CACGAATC	-0.0434
CGTATACA	-0.0227
ATCGTTCG	0.0395
GAGCCCTA	-0.209
ATTAGTAA	0.141
CTATTCCC	-0.111
ATTGGGAA	0.0707
GACGTTCA	0.0721
GCGGCCCA	-0.184
TGCTTTAA	0.151
CTACATTC	-0.121
GGAAAACC	-0.157
GCCCGTCA	-0.234
CTGGAAAC	0.0093
GCTACACA	-0.169
CAGCGCGC	-0.00784
AACGACTC	-0.193
ACCGGCAG	-0.195
CACTTCTG	-0.0201
